{
  "source": "paper PMC12040169",
  "about": "(PLOS Biology, 2025)",
  "note": "The list shows a part of the results.",
  "data": [
    {"system": "T1, C. trachomatis L2/434/Bu expressing GFP (CTL2-GFP)", "T1 construct": "L2/434/Bu GFP intracellular growth in HeLa cells", "parameters": "species or system HeLa; C. trachomatis total inclusion area by high-content imaging, normalised to DMSO", "details": "total inclusion area; 28.5 h, 10 µM; inhibitor", "outline": "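Following bulk GFP and resorufin fluorescence reads, infected cells were fixed, Hoechst-stained and imaged on a high-content platform. Inclusion total area and number per well served as growth proxies; nuclei counts indicated host viability. MICs were derived as for the fluorescence assay.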", "values": [
      {"smiles": "O=C(c1ccc2c(c1)CCO2)N1CCC(Sc2ccc(-c3ccccc3)cc2)CC1", "note": "[CBK131953]", "% of control remaining": 68.8881},
      {"smiles": "COc1ccc(Cl)cc1CN(C)C(=O)c1ccc(C)[nH]c1=O", "note": "[CBK305794]", "% of control remaining": 17.7052},
      {"smiles": "CN1CCC(N2CC[C@@H]3[C@H]2C(=O)NC[C@H](CCC(=O)NCc2ccccc2)N3C)CC1", "note": "[CBK289026]", "% of control remaining": 84.4205},
      {"smiles": "Cc1cccc(CCNC(=O)N2CCC(Cc3cnn(C)c3)C2)c1", "note": "(stereo not shown) [CBK305137]", "% of control remaining": 79.6046},
      {"smiles": "COc1cccc(CN2CC[C@@H]3[C@H](C2)[C@@H](c2ccc(F)cc2)CN3C(=O)c2ccccc2)c1", "note": "[CBK286292]", "% of control remaining": 74.9281},
      {"smiles": "NCCNC(=O)c1cc2cc(OC(F)(F)F)ccc2[nH]1", "note": "[CBK107368]", "% of control remaining": 86.8282},
      {"smiles": "Clc1ccc(Nc2cncc(-c3cccnc3)n2)cc1", "note": "[CBK065234]", "% of control remaining": 120.289},
      {"smiles": "O=C(CSc1nc2ccccc2[nH]1)Nc1ccc(OC(F)(F)F)cc1", "note": "[CBK269711]", "% of control remaining": 109.258},
      {"smiles": "c1ccc2c(-c3cn4ccnc4c(N4CCOCC4)n3)cccc2c1", "note": "[CBK037387]", "% of control remaining": 58.6955},
      {"smiles": "O=C(c1ccc2c(c1)OCCO2)N1CCN(c2ncccn2)CC1", "note": "[CBK144519]", "% of control remaining": 86.4085},
      {"smiles": "O=C(O)c1ccc(CNCC(O)c2ccccc2)cc1", "note": "(stereo not shown) [CBK287243]", "% of control remaining": 129.321},
      {"smiles": "CN(C)[C@H]1CCCC[C@@H]1OC(=O)c1ccc(C(F)(F)F)cc1", "note": "[CBK010550F]", "% of control remaining": 117.129},
      {"smiles": "CCOC(=O)NC(=O)c1ccccc1", "note": "[CBK012359]", "% of control remaining": 77.8227},
      {"smiles": "Cc1sc(NC(=O)COc2ccccc2)c(C(N)=O)c1-c1ccccc1", "note": "[CBK268164]", "% of control remaining": 105.449},
      {"smiles": "Cc1csc2ncc(C(=O)Nc3ccccc3C#N)c(=O)n12", "note": "[CBK287458]", "% of control remaining": 82.8996},
      {"smiles": "CC(=O)NCCSc1nccc(C(F)(F)F)n1", "note": "[CBK105301]", "% of control remaining": 78.5575},
      {"smiles": "CCCSc1scc2c1-c1n[nH]cc1CC2", "note": "[CBK017006]", "% of control remaining": 13.0102},
      {"smiles": "O=C(CSc1nnc(-c2cccnc2)n1-c1ccc(Br)cc1)Nc1ccc2c(c1)OCO2", "note": "[CBK266153]", "% of control remaining": 117.897},
      {"smiles": "CCN(CC)c1ccc(CN(CCCN(C)C)C(=O)NCc2ccc(F)cc2)cc1", "note": "[CBK159410]", "% of control remaining": 88.657},
      {"smiles": "COC(=O)[C@@H](C)NC(=O)[C@H]1CN(C(=O)Nc2ccccc2)CCN1C(C)=O", "note": "[CBK289627]", "% of control remaining": 121.476},
      {"smiles": "O=C1N=C(NC2CC3CCC2C3)SC12CCCO2", "note": "(stereo not shown) [CBK116312]", "% of control remaining": 69.4451},
      {"smiles": "O=c1cc(CSc2nnc(-c3ccccc3)[nH]2)nc2[nH]cnn12", "note": "[CBK294398]", "% of control remaining": 113.898},
      {"smiles": "CC(=O)N1CCCN(C(=O)Cn2cnc3ccc(F)cc3c2=O)CC1", "note": "[CBK245206]", "% of control remaining": 48.2641},
      {"smiles": "Cn1ncnc1COc1ccc(S(=O)(=O)N2CCCCC2CN)cc1", "note": "(stereo not shown) [CBK304313C]", "% of control remaining": 111.047},
      {"smiles": "Cc1cccc(C)c1NC(=O)CSCC(=O)Nc1ccc2ccccc2c1", "note": "[CBK263274]", "% of control remaining": 120.98},
      {"smiles": "CCOc1ccc(Cl)cc1CN(C)C(=O)NC(C)CN1CCOCC1", "note": "(stereo not shown) [CBK307170]", "% of control remaining": 64.31},
      {"smiles": "Cc1nc(CCNC(=O)c2cc(C(C)C)n(C(C)(C)C)n2)cs1", "note": "[CBK304082]", "% of control remaining": 34.0632},
      {"smiles": "COc1cc([N+](=O)[O-])ccc1NC(=O)CS(=O)(=O)Cc1ccccc1", "note": "[CBK266704]", "% of control remaining": 85.3491},
      {"smiles": "N#C/C(=C\\c1cn(-c2ccccc2)nc1-c1ccc(S(=O)(=O)N2CCCCC2)cc1)c1nc2ccccc2c(=O)[nH]1", "note": "[CBK266268]", "% of control remaining": 95.0192},
      {"smiles": "O=[N+]([O-])c1ccc(-c2ccc(/N=C/c3ccco3)cc2)cc1", "note": "[CBK261639]", "% of control remaining": 89.4218},
      {"smiles": "C/C(=N/NC(=O)C(C)CN1CCOCC1)c1ccc(Cl)cc1", "note": "(stereo not shown) [CBK016045]", "% of control remaining": 67.096},
      {"smiles": "O=c1[nH]c(CSc2nnc(COc3ccccc3)o2)nc2ccccc12", "note": "[CBK269869]", "% of control remaining": 102.667},
      {"smiles": "CCNC(=O)CN1CCN(c2nc(C(F)(F)F)ccc2C#N)CC1", "note": "[CBK305515]", "% of control remaining": 41.5995},
      {"smiles": "O=C(CSc1ccc(Cl)cc1)NCCCN1CCOCC1", "note": "[CBK009390]", "% of control remaining": 41.4355},
      {"smiles": "CCOc1cccc(N2C(=O)CC(N3CCN(c4ccccn4)CC3)C2=O)c1", "note": "(stereo not shown) [CBK262829]", "% of control remaining": 98.2287},
      {"smiles": "Cc1nn(CC(=O)N(C(C)C)C(C)C)c(=O)c2cc3occc3n12", "note": "[CBK283655]", "% of control remaining": 83.4472},
      {"smiles": "Cc1cc(NS(=O)(=O)c2ccc(Oc3ccccc3)cc2)n(C)n1", "note": "[CBK067249]", "% of control remaining": 106.136},
      {"smiles": "O=C(NCCC1=CCCCC1)Nc1ccc2ccccc2c1", "note": "[CBK044195]", "% of control remaining": 90.6713},
      {"smiles": "O=C(c1ccccc1)c1ccc(S(=O)(=O)N2CCCN(Cc3c[nH]nc3-c3ccccc3)CC2)cc1", "note": "[CBK062773]", "% of control remaining": 71.6682},
      {"smiles": "O=C1CC[C@@H](NCc2ccco2)[C@H](c2cc(F)cc(F)c2)N1", "note": "[CBK283127]", "% of control remaining": 68.5754}
    ]}
  ]
}
